According to PubChem BioAssay AID485297 (National Center for Advancing Translational Sciences (NCATS), 2010):
The campaign covered roughly 320,000 compounds. About 9,100 (2.8%) were called active. This list was built around the results that the source calls inconclusive (neither active nor inactive); the mix of calls is not that of the screen. The call rests on the fitted dose curve; in most records, active means well fitted activation curve with a large enough effect; inconclusive means small, poorly fitted or top-dose-only effect; inactive means no such curve, though single readings can be large or run the other way. No potency is given beside an inconclusive call; the fits are too rough.

Experiment: qHTS Assay for Rab9 Promoter Activators; further: nearly all actives have a fitted effect of over 60% in size; on activation, negative = inhibition: % of control where 0% means no effect
Conditions: Huh7 Rab9 promoter-luciferase reporter, luminescence, 24 h; series mostly up to 9.22 µM
Outline: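 Cells were plated at 1500 per well in reduced-serum medium with 10% FBS and left 2 h. Compound in DMSO was then added for 24 h at 37 °C. Reporter signal was read by luminescence after 10 min with luciferase detection reagent.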
Potency means the concentration at half of the fitted maximal effect; tags describe the fitted curve by direction and shape.

Compound | Potency | activation, negative = inhibition
O=c1[nH]cc(S(=O)(=O)N2CCOCC2)c(=O)[nH]1 | inactive | –
Cc1ccc(S(=O)(=O)N=S(CC2CC2(Cl)Cl)CC2CC2(Cl)Cl)cc1 (stereo unspecified) | inactive | –
Clc1ccc(C2[C@H]3CN(Cc4ccc(-c5ccccc5)cc4)[C@H](c4ccccc4)C34CC2(c2cccnc2)C4)cn1 (stereo partly specified) | inactive | –
O=C(C1CCCN(S(=O)(=O)c2ccc(F)cc2)C1)N1CCCCCC1 (stereo unspecified) | inactive | –
COc1ccc2nc(NC(=O)Cc3cccs3)sc2c1 | active: 2.82 µM | –
O=C(COc1ccc(Br)cc1CO)Nc1ccccc1F | inconclusive [activator, partial curve] | –
CC(=O)Oc1ccc(/C=C/c2nc3ccccc3c(=O)o2)cc1 | inconclusive [activator, partial curve] | –
CSc1ccc(/C=N/NC(=O)CN2CCN(Cc3ccccc3Cl)CC2)cc1 | inactive | –
CN(C(=O)C1CCOC1)c1nnc(-c2ccccn2)s1 (stereo unspecified) | inconclusive [activator, partial curve] | –
Cc1ccc(NC(=O)Cc2noc3ccccc23)cc1 | inconclusive [activator, partial curve] | –
O=C(CC(=O)c1ccccc1)Nc1ccc(Cl)cc1 | inconclusive [activator, partial curve] | –
O=C(NNC1=NCCCCC1)Nc1cccc(Cl)c1 | active: 1.12 µM | –
CCC(=O)NC(=S)Nc1ccc2oc(-c3ccc(OC)cc3)nc2c1 | inconclusive [activator, full curve] | –
S=C(Nc1ccc2c(c1)OCCO2)Nc1ccc2c(c1)OCO2 | active: 3.98 µM | –
O=[N+]([O-])c1ccc(-c2cnc[nH]2)cc1 | inactive | –
O=C(CCNC(=O)c1ccccc1Cl)Nc1nc2ccccc2s1 | inconclusive [activator, single point] | –
CC12CCC(=O)N1C(C(=O)Nc1nc3ccc(F)cc3s1)CS2 (stereo unspecified) | inactive | –
COc1ccc(/C=N/N=C(\N)c2nonc2N)cc1OC | inconclusive [activator, single point] | –
Cc1cc(NC(=O)c2ccc(S(=O)(=O)N(C)C)cc2)no1 | inactive | –
CCSc1nc2c(cnn2-c2ccccc2)c(=O)n1N | active: 1.26 µM | –
Cc1nnc2c(NCCc3ccccc3)nc3ccccc3n12 | – | inactive: -4.03% [at 1.84 µM]

Compound | Potency | activation, negative = inhibition
COc1ccccc1C(=O)CSc1ccccn1 | inconclusive [activator, partial curve] | –
CC1CCCC(C)N1S(=O)(=O)c1ccc(NC(=O)c2ccccc2C(=O)N2CCOCC2)cc1 (stereo unspecified) | inactive | –
Nc1nc(Nc2ccc(Cl)cc2Cl)nc(C(F)(F)F)n1 | inconclusive [activator, partial curve] | –
O=C(Nc1ccc(Cl)cc1Cl)c1csc(-c2cccnc2)n1 | inconclusive [activator, single point] | –
COc1cccc(-c2cc(C(=O)Nc3cccnc3)no2)c1 | inactive | –
O=C(Oc1ccc(/C=N/O)cc1)c1ccccc1 | inconclusive [activator, single point] | –
CC(=O)n1nc(-c2ccccc2)nc1NCc1ccc(N(C)C)cc1 | inconclusive [activator, single point] | –
Cc1ccc(-c2nnn(CC(=O)N(CCCO)C(C(=O)NC3CCCC3)c3ccc(F)cc3)n2)o1 (stereo unspecified) | inactive | –
CNC(=S)Nc1cccc(-c2cnc3ccccc3n2)c1 | inconclusive [activator, partial curve] | –
CCc1c(-c2ccccc2)nc2sc3c(c2c1N)CCCC3 | inconclusive [activator, partial curve] | –
CN1CCC/C1=C/C=C1\SC(=S)NC1=O | inconclusive [activator, single point] | –
O=C(c1cc(-c2ccccc2Cl)nc2ccccc12)N1CCOCC1 | inactive | –
COc1ccccc1NC(=O)C(=O)N/N=C(\C)CC(=O)Nc1ccc(OCc2ccccc2)cc1 | inconclusive [activator, single point] | –
N=C(N)SCCc1ccc(CCSC(=N)N)cc1 | inconclusive [activator, single point] | –
Cc1cc(C(=O)Nc2cccc(C(=O)O)c2)oc1C | inconclusive [activator, partial curve] | –
CCC(=O)c1ccc(OCC(O)Cn2nnc3ccccc32)cc1 (stereo unspecified) | inconclusive [activator, partial curve] | –
CSc1cccc(NC(=O)c2sc3nc4n(c(=O)c3c2C)CCC4)c1 | inconclusive [activator, partial curve] | –
O=C(Nc1ccc2c(c1)OCO2)c1sc2cc(Cl)ccc2c1Cl | inconclusive [activator, single point] | –
Cc1c(C(=O)Nc2ccccc2F)sc2nc3n(c(=O)c12)CCC3 | active: 2.51 µM | –
COc1cccc(C(=O)NNC(=S)NC2CCCCC2)c1 | active: 2.24 µM | –
O=C(CSc1nnc2ccc3ccccc3n12)N1CCOCC1 | inconclusive [activator, partial curve] | –

Compound | Potency | activation, negative = inhibition
c1ccc2nc(SCc3cn4ccccc4n3)cnc2c1 | inconclusive [activator, partial curve] | –
COc1ccc2nc(NCCCNC(=O)c3cc(OC)c(OC)c(OC)c3)c(C#N)cc2c1 | inactive | –
Clc1ccccc1/C=N/NC1=Nc2cccc3cccc1c23 | active: 4.47 µM | –
FC(F)(F)c1cccc(-c2nc(-c3ccncc3)no2)c1 | inconclusive [activator, partial curve] | –
O=C(Nc1nc2ccccc2[nH]1)C1CCCC1 | active: 1.26 µM | –
O=C(C[n+]1ccccc1)N/N=C/c1ccc(Cl)c(Cl)c1 | inactive | –
CN1CCN(/N=C/c2ccc(-c3ccccc3)cc2)CC1 | inconclusive [activator, partial curve] | –
O=C(Nc1cnc2ccccc2c1)C1COc2ccccc2O1 (stereo unspecified) | active: 3.98 µM | –
O=[N+]([O-])c1cccc(N=Cc2sc3ccccc3c2O)c1 | inconclusive [activator, single point] | –
O=C(N/N=C/c1ccccc1)c1ccc(-c2ccccc2)cc1 | inconclusive [activator, single point] | –
CCC(=O)N1CCN(c2ccc(NC(=O)COc3ccccc3Cl)cc2)CC1 | inactive | –
O=C(Nc1ccc(N2CCCCCC2)cc1)c1ccccc1Cl | inconclusive [activator, full curve] | –
O=C(O)CCNS(=O)(=O)c1cccc2nsnc12 | inactive | –
O=C(N=Nc1ccc(NOC(=O)c2ccccc2Br)cc1)c1ccccc1O | inconclusive [activator, partial curve] | –
COc1ccc(CCNC(=O)C(=O)NCC2OCCN2S(=O)(=O)c2ccc(C)cc2)cc1 (stereo unspecified) | inactive | –
CCC(C)c1ccc(NC(=S)N2CCN(S(C)(=O)=O)CC2)cc1 (stereo unspecified) | inactive | –
CC(NC(=O)Nc1ccc(Cl)cc1)C1CCCO1 (stereo unspecified) | inconclusive [activator, single point] | –
Cc1ccccc1N=C1NC(=O)/C(=C/c2cccn2C)S1 | inactive | –
O=C(NCc1ccncc1)Nc1ccc2c(c1)OCO2 | inconclusive [activator, partial curve] | –
CSc1ccccc1-c1nnc(-c2ccc(C)cc2)o1 | inconclusive [activator, single point] | –
CCCNC(=O)c1ccccc1NC(=O)COc1cccc2c1OC(C)(C)C2 | inactive | –

Compound | Potency | activation, negative = inhibition
CC(=O)Nc1ccc(N=Nc2c(C)[nH]n(C(N)=S)c2=O)cc1 | inconclusive [activator, single point] | –
COc1ccc(-c2nnc3sc(COc4ccc(C)cc4)nn23)cc1 | inactive | –
CC(=O)Nc1ccc2c(c1)CCc1ccccc1-2 | inconclusive [activator, partial curve] | –
O=C(NCc1ccccc1Cl)C1CCC(=O)N(C2CCCC2)C1 (stereo unspecified) | inactive | –
Cc1cccc(CC(=O)N2CCCC2)c1 | inactive | –
O=C(NC1CC(=O)N(c2ccc(Cl)cc2)C1)N1CCN(C(=O)c2ccco2)CC1 (stereo unspecified) | inactive | –
C[C@H](NC(=O)[C@@H]1Cc2ccccc2CN1)C(=O)NC1CCCC1 | inactive | –
COc1ccc(OCCOC(=O)CNS(=O)(=O)c2ccc(SC)c([N+](=O)[O-])c2)cc1 | inactive | –
CC1=NN(c2ccccc2)C(=O)/C1=C/c1cc2cc(C)ccc2nc1N1CCCCC1 | inconclusive [activator, partial curve] | –
Cc1ccc(CSc2nc3ccncc3[nH]2)cc1 | inconclusive [activator, full curve, poor fit] | –
Cc1c(Cl)cccc1Nc1nc(N)nc(CSc2ncccn2)n1 | inconclusive [activator, single point] | –
C1=C(c2ccccc2)Nc2nnnn2C1c1cccs1 (stereo unspecified) | inconclusive [activator, single point] | –
CCOC(=O)Cc1csc(NC(=O)Cc2cccs2)n1 | inactive | –
COc1cccc(N2CCN(CC(=O)Nc3ccnn3C3CCCC3)CC2)c1 | inactive | –
Nc1nc(C2C(=O)CCCC2=O)cs1 | inconclusive [activator, single point] | –
Cc1ccc(-n2ncc(Cl)c2C(=O)NC2CC2)cc1 | active: 1.78 µM | –
CC1(C)Cc2nc3sc(C(N)=O)c(N)c3cc2CO1 | inconclusive [activator, partial curve] | –
CC(=O)Nc1ccc(/C=C/C(=O)c2ccc3c(c2)OCCO3)cc1 | inactive | –
